# According to PubChem BioAssay (NCATS):
# The inconclusive results got no clear call from the source; some entries with a clear call stand among them for comparison. No potency is given beside an inconclusive call; the fits are too rough. Active and inactive are the calls of the source. The call rests on the fitted dose curve; in most records, active means well fitted inhibition curve with a large enough effect; inconclusive means small, poorly fitted or top-dose-only effect; inactive means flat fitted curve, though single readings scatter.
# System: Zika virus NS2B-NS3 protease
# Experiment: Primary screen GU AMC qHTS for Zika virus inhibitors (AID 1347154); further: nearly all actives have a fitted effect of over 70% in size
# Conditions: Zika NS2B-NS3 unlinked protease, AMC fluorogenic substrate; series mostly up to 54.1 µM
# Summary of the method: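 Fluorogenic AMC-substrate cleavage by noncovalent NS2B-NS3 protease complex (25 nM, pH 8.0 Tris buffer with Tween 20) followed for 15 minutes at room temperature (~20% conversion). Percent inhibition from ex340/em450 signal change, fitted by 4-parameter Hill equation.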
# Potency means the concentration at half of the fitted maximal effect; tags describe the fitted curve by direction and shape.
row,Structure (SMILES),Potency
1,CC(NCCc1ccc(O)cc1)C(O)c1ccc(O)cc1 (configuration not stated),inactive
2,CCCCOCCOc1nc(-c2ccc(C(=O)O)c(F)c2)sc1C,"inconclusive [inhibitor, full curve, poor fit]"
3,CCC(C(=O)O)C1CCC(C)C(C(C)C(O)C(C)C(=O)C(CC)C2OC3(C=CC(O)[C@@]4(CC[C@](C)(C5CC[C@@](O)(CC)C(C)O5)O4)O3)C(C)CC2C)O1 (some centres not stated),"inconclusive [inhibitor, single point]"
4,c1ccc(-c2oc3ncnc(NC[C@@H]4CCCO4)c3c2-c2ccccc2)cc1,active: 30.4 µM
5,Nc1ccc(S(N)(=O)=O)cc1,inactive
6,COc1cc2nccc(Oc3ccc(NC(=O)Nc4cc(C)on4)c(Cl)c3)c2cc1OC,inactive
7,O=C(Nc1nnc(-c2ccco2)o1)c1cc(-c2ccccc2)nc2ccccc12,"inconclusive [inhibitor, partial curve, poor fit]"
8,CCCCCCCc1ccc(CCc2cccc(O)c2C(=O)O)cc1,active: 8.57 µM
9,Clc1ccc(COC(Cn2ccnc2)c2ccc(Cl)cc2Cl)c(Cl)c1 (configuration not stated),"inconclusive [inhibitor, partial curve, poor fit]"
10,CC1(C)CC(=O)c2c(C(F)(F)F)nn(-c3ccc(C(N)=O)c(NC4CCC(OC(=O)CN)CC4)c3)c2C1 (configuration not stated),inactive
11,COc1ccc2c(c1)c(CC(=O)O)c(C)n2C(=O)c1ccc(Cl)cc1,inactive
12,NC(=O)Nc1cc(-c2cccc(F)c2)sc1C(=O)N[C@H]1CCCNC1,"inconclusive [inhibitor, partial curve]"
